Substitutions are numbered along the chain they refer to. Names and notes keep the numbering of the source. No constants are given. Whether binding was seen depends on the method and setting. For part of these data: Binding seen in cells or lysates may run through a third protein. Some results given as binding are weak or reduced against the parent protein; the word gives no strength. Where a sequence is shown, tags or fusion partners need not be part of it. Values belong to the molecule of their own block, whether it stands above or below them.
What was measured:
[1] = molecular target: T1, GFP-caspase-2-C320G (stably expressed in U2OS-CASP2-/- cells, sC320G) (mouse) (UniProt P29594); test: co-IP; GFP-Trap IP of GFP-caspase-2-C320G from mitotic sC320G cells (thymidine block, release, 100 ng/mL nocodazole 14 h, shake-off); NP-40 lysis buffer; 2 h at 4 °C; immunoblot for AURKB
T1 sequence: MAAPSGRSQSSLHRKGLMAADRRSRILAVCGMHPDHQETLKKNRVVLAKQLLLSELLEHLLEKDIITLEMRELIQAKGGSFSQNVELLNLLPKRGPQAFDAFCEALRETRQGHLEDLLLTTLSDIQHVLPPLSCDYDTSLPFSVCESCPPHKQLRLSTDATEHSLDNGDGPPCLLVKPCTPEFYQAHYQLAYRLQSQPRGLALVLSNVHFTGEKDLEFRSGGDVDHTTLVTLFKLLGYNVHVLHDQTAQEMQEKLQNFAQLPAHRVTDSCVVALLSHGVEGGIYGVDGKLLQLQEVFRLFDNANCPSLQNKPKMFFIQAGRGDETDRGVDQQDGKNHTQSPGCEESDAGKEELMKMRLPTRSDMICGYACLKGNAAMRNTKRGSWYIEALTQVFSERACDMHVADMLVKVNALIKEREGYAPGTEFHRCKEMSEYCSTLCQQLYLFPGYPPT

Protein sequences, listed by entry. Tags and fused reporters are not part of them.
UniProt Q96GD4: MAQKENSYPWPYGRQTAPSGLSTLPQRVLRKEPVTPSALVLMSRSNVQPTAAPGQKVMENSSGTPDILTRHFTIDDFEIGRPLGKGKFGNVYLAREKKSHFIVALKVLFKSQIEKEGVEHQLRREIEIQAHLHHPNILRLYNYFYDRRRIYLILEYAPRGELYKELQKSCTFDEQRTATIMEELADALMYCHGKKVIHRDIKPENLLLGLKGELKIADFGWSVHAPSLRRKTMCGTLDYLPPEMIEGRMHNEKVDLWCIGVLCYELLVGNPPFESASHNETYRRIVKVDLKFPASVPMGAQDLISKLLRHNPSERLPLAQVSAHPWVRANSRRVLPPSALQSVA

[2] = molecular target: T1, GFP-caspase-2-C320G (stably expressed in U2OS-CASP2-/- cells, sC320G) (mouse); test: condition: only cells treated with the AURKB inhibitor ZM447439 (2 µM, 24 h); co-IP; GFP-Trap IP of GFP-caspase-2-C320G from sC320G cells treated with the AURKB inhibitor ZM447439 (2 µM, 24 h); NP-40 lysis buffer; 2 h at 4 °C; immunoblot for AURKB
[3] = molecular target: T1, GFP-caspase-2-C320G (stably expressed in U2OS-CASP2-/- cells, sC320G) (mouse); test: co-IP; GFP-Trap IP of GFP-caspase-2-C320G from asynchronous sC320G cells; NP-40 lysis buffer; 2 h at 4 °C; immunoblot for AURKB
[4] = molecular target: T2, GST-Casp2-C320G (GST-Casp2 full-length) (mouse) (UniProt P29594); test: pull-down; GST pull-down: 1 µg GST fusion incubated with 500 ng His-AURKB in 50 mM Tris-HCl, 10 mM MgCl2, 0.1 mM EDTA, 0.01% Brij 35, pH 7.5, 2 h at room temperature; captured on glutathione-agarose beads; four washes; immunoblot; both purified
T2 sequence: T1 sequence

[5] = molecular target: T3, GST-Casp2_(363–423)-WT (mouse) (UniProt P29594); test: as above
T3 sequence: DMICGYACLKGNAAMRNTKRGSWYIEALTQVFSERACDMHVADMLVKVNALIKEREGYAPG

[6] = molecular target: caspase-2-S384E BiFC constructs (pBiFC-HA-Casp2(S384E)-VC155 and pBiFC-HA-Casp2(S384E)-VN173) (mouse) (UniProt P29594); test: split reporter; BiFC (VN173 + VC155 Venus fragments) in U2OS-CASP2-/- cells with 20 µM z-VAD; DMSO or 100 nM BI2536 for 24 h; fixed cells, confocal microscopy, BiFC-positive cells counted

- binding [1]: binds
- binding [2]: no binding
Molecule: AURKB (endogenous, U2OS cells) (from UniProt Q96GD4 1-344) (enzyme)
- binding [3]: no binding (condition: asynchronous cells)

- binding [4]: binds
- binding [5]: binds
Molecule: His-AURKB (recombinant human Aurora B kinase) (from UniProt Q96GD4 1-344) (enzyme)

- binding [6]: binds
B1: caspase-2-S384E BiFC constructs (pBiFC-HA-Casp2(S384E)-VC155 and pBiFC-HA-Casp2(S384E)-VN173) (enzyme, UniProt P29594 1-452)
chain: T1 sequence with G320C, S384E

Source: PMC7852673
